Reference: patent US12545639B2, “3-substituted phenylamidine compounds, preparation and use thereof” (PI INDUSTRIES LTD., priority 2019, dated 2026)

System: Botrytis cinerea
Experiment: Botrytis cinera test in tomato, preventive, in vivo on plants
Conditions: 500 ppm spray, bean/chili plants inoculated one day after treatment, rated 3, 7, 10 and 15 days after application, read-out: Efficacy (% control), disease severity compared to the untreated check

| Compound | pest or weed control at 500 ppm [%] |
| --- | --- |
| CCN(C)C=Nc1cc(C)cc(Cc2cccc(Cl)c2)c1Cl [Compound 27, N′-(2-chloro-3-(3-chlorobenzyl)-5-methylphenyl)-N-ethyl-N-methylformimidamide] | ≥ 70 |
| CCN(C)C=Nc1cc(C)cc(Nc2cccc(C)c2)c1Cl [Compound 36, N′-(2-chloro-5-methyl-3-(m-tolylamino)phenyl)-N-ethyl-N-methylformimidamide] | ≥ 70 |
| CCN(C)C=Nc1cc(F)cc(N(C)c2cccc(OC)c2)c1C [Compound 39, N-ethyl-N′-(5-fluoro-3-((3-methoxyphenyl)(methyl)amino)-2-methylphenyl)-N-methylformimidamide] | ≥ 70 |
| CCN(C)C=Nc1cc(C)cc(Cc2ccccc2Br)c1Cl [Compound 45, N′-(3-(2-bromobenzyl)-2-chloro-5-methylphenyl)-N-ethyl-N-methylformimidamide] | ≥ 70 |
| CCN(C)C=Nc1cc(C)cc(N(C)c2cccc(OC)c2)c1Cl [Compound 49, N′-(2-chloro-3-((3-methoxyphenyl)(methyl)amino)-5-methylphenyl)-N-ethyl-N-methylformimidamide] | ≥ 70 |
| CCN(C)C=Nc1cc(C)cc(N(C)c2ncccn2)c1Cl [Compound 192, N′-(2-chloro-5-methyl-3-(methyl(pyrimidin-2-yl)amino)phenyl)-N-ethyl-N-methylformimidamide] | ≥ 70 |
| CCN(C)C=Nc1cc(C)cc(N(C)c2ccc(OC)c(F)c2)c1Cl [Compound 258, N′-(2-chloro-3-((3-fluoro-4-methoxyphenyl)(methyl)amino)-5-methylphenyl)-N-ethyl-N-methylformimidamide] | ≥ 70 |
| CCN(C)C=Nc1cc(OC)cc(Cc2ccc(C)cc2)c1C [Compound 263, N-ethyl-N′-(5-methoxy-2-methyl-3-(4-methylbenzyl)phenyl)-N-methylformimidamide] | ≥ 70 |
| CCN(C)C=Nc1cc(OC)cc(Cc2cccc(Cl)c2)c1C [Compound 264, N′-(3-(3-chlorobenzyl)-5-methoxy-2-methylphenyl)-N-ethyl-N-methylformimidamide] | ≥ 70 |
| CCN(C)C=Nc1cc(OC)cc(Nc2ccc(OC)c(F)c2)c1C [Compound 269, N-ethyl-N′-(3-((3-fluoro-4-methoxyphenyl)amino)-5-methoxy-2-methylphenyl)-N-methylformimidamide] | ≥ 70 |
| CCN(C)C=Nc1cc(OC)cc(Cc2ccc(F)c(Cl)c2)c1C [Compound 282, N′-(3-(3-chloro-4-fluorobenzyl)-5-methoxy-2-methylphenyl)-N-ethyl-N-methylformimidamide] | ≥ 70 |
